Laboratory results from PubChem BioAssay AID504339 (National Center for Advancing Translational Sciences (NCATS), 2011).
Values joined by “and” are separate entries in the source; they are usually repeats but may differ in a detail not shown here. Identical values can stand only once. Hit rate of the full screen: of about 390,000 compounds, about 17,000 (4.4%) were called active. This list was built around the results that the source calls inconclusive (neither active nor inactive); the mix of calls is not that of the screen. The call rests on the fitted dose curve; in most records, active means well fitted inhibition curve with a large enough effect; inconclusive means small, poorly fitted or top-dose-only effect; inactive means no such curve, though single readings can be large or run the other way. Where the call is inconclusive, the potency comes from a doubtful curve fit.

target: Lysine-specific demethylase 4A (Homo sapiens) (UniProt O75164); assay: qHTS Assay for Inhibitors of JMJD2A-Tudor Domain; conditions: AlphaScreen JMJD2A-Tudor / H3K4me3 peptide binding; series mostly up to 114 µM; further: nearly all actives have a fitted effect of over 50% in size
Chain of UniProt O75164 (O75164 whole entry, looked up, the tested form may be a part): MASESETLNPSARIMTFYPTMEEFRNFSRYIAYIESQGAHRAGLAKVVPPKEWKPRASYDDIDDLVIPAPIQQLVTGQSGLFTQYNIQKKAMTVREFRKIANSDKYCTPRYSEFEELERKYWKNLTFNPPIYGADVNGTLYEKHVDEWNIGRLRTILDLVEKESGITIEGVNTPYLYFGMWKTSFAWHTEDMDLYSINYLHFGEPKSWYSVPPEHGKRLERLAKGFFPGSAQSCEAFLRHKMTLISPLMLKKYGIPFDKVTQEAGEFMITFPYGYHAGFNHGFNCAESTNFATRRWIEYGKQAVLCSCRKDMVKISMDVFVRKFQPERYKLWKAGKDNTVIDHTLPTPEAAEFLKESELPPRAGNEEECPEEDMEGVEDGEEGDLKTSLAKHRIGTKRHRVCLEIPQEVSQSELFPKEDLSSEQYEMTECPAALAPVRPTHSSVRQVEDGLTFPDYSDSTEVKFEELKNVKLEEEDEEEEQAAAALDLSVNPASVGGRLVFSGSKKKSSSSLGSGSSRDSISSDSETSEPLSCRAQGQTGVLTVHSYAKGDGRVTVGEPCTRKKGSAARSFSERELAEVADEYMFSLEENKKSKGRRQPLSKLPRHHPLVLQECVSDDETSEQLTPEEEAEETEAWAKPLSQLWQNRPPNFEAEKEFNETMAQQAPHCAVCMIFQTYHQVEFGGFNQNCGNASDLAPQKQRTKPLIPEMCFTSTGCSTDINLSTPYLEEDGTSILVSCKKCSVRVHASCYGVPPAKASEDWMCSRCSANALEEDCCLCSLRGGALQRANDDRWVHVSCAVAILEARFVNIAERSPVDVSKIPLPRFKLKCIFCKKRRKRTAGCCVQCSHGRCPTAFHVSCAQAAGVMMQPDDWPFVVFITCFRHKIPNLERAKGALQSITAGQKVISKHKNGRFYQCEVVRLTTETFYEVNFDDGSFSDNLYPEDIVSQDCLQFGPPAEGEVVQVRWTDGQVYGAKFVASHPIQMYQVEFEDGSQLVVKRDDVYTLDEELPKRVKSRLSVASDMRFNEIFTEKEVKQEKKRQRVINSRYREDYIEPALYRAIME
Potency means the concentration at half of the fitted maximal effect; tags describe the fitted curve by direction and shape.

Row | Structure (SMILES) | Potency
1 | Cc1nn(CC(=O)NCCN2CCCCCC2)c(=O)c2nn(-c3ccccc3)c(C)c12 | inactive
2 | O=C(O)COc1ccc(Br)cc1/C=C1/SC(=O)N(CC(=O)N2CCCC2)C1=O | inconclusive: 79.4 µM [inhibitor, partial curve]
3 | S=C(Nc1ccc2nsnc2c1)N1CCCCC1 | inactive
4 | COc1ccc(Nc2nc(N3CCCCC3)c3ccccc3n2)cc1 | inconclusive: 79.4 µM [inhibitor, partial curve]
5 | COC1=C/C(=C/c2c(N)n3nc(-c4ccc(C)cc4)sc3nc2=O)C=CC1=O | inconclusive: 50.1 µM [inhibitor, partial curve]
6 | COc1ccc(NC(=O)CCC(=O)c2ccc(Cl)cc2)cn1 | inconclusive: 39.8 µM [inhibitor, partial curve]
7 | O=[N+]([O-])c1ccc(Oc2cccc(Br)c2)c2ccncc12 | inconclusive: 8.91 µM [inhibitor, single point]
8 | CCN(CC)C(=O)C1CCCN(Cc2ccccc2C(F)(F)F)C1 (stereo not given) | active: 4.47 µM
9 | CCN(CC)c1ccc2cc(-c3nc(-c4cc5ccccc5oc4=O)cs3)c(=O)oc2c1 | inconclusive: 39.8 µM [inhibitor, single point]
10 | CCOc1ccc(-n2c(SCc3ccc(C(=O)OC)o3)nc3c(c2=O)SCC3)cc1 | inconclusive: 10 µM [inhibitor, full curve]
11 | Cc1cc(-c2csc(N)n2)c(C)n1-c1ccc(Cl)c(Cl)c1 | active: 56.2 µM
12 | COc1ccc(N2C(=O)/C(=C\c3ccco3)N=C2SCC(=O)NC(C)(C)C)cc1Cl | inconclusive: 25.1 µM [inhibitor, full curve]
13 | CC(Sc1nnc(-c2ccccc2)c(-c2ccccc2)n1)C(=O)Nc1ncc(Cl)cc1Cl (stereo not given) | inconclusive: 25.1 µM [inhibitor, full curve]
14 | Nc1nc(N)c(N=Nc2ccc(Cl)cc2)c(=O)[nH]1 | inactive
15 | Cc1cc(C)cc(NC(=O)CNS(=O)(=O)c2ccc3nc(C)sc3c2)c1 | inactive
16 | COc1cc(O)c(C(CCN2CCOCC2)c2ccc3c(c2)OCO3)c(OC)c1 (stereo not given) | inactive and inconclusive: 50.1 µM [inhibitor, partial curve]
17 | O=c1[nH]c2ccc(Cl)cc2c(-c2ccccc2)c1N1CCOCC1 | inconclusive: 100 µM [inhibitor, single point]
18 | CC(=O)c1ccc(NC(=O)C2C3C=CC(O3)C2C(=O)O)cc1 (stereo not given) | inconclusive: 20 µM [inhibitor, partial curve]
19 | Cn1nc([N+](=O)[O-])nc1Oc1ccccc1F | inconclusive: 79.4 µM [inhibitor, partial curve]
20 | CCOc1ccccc1NC(=O)Nc1cc2c(cc1N1CCCCC1)n(CC)c(=O)n2CC | inconclusive: 22.4 µM [inhibitor, full curve]
21 | CCOc1ccc(NC(=O)c2ccc(NC(=O)COC(=O)c3ccc(NC(=O)CC#N)cc3)cc2)cc1 | inconclusive: 2.51 µM [inhibitor, full curve, poor fit]
22 | O=C(COC(=O)c1ccc(O)cc1O)c1ccc2c(c1)OCCO2 | inconclusive: 89.1 µM [inhibitor, partial curve]
23 | COc1ccc(C(=O)NCCC(=O)N2CCC3(CC2)NCCc2[nH]cnc23)cc1 | inconclusive: 28.2 µM [inhibitor, full curve, poor fit]

Row | Structure (SMILES) | Potency
24 | Cc1ccc(N2CCN(/N=C/c3ccccc3[N+](=O)[O-])CC2)cc1 | inconclusive: 44.7 µM [inhibitor, partial curve, poor fit]
25 | CCOC(=O)N/N=C\c1ccc(-c2cccc(C(F)(F)F)c2)o1 | inconclusive: 35.5 µM [inhibitor, partial curve, poor fit]
26 | COCCCn1c(=N)c(C(=O)NCc2cccnc2)cc2c(=O)n3cc(C)ccc3nc21 | inactive
27 | Cc1cccc(NC(=O)c2cc3ccccc3o2)c1 | inactive
28 | CC1CCN(c2ccc(NC(=O)C3CCCN3S(=O)(=O)c3ccc(F)cc3)cc2)CC1 (stereo not given) | active: 39.8 µM
29 | Cc1cc(C)c(S(=O)(=O)Nc2ccc(N3CCOCC3)cc2)c(C)c1 | inactive
30 | COc1cc(CCNC(=O)c2ccc3c(c2)c(C)c(C)n3Cc2cccc(C)c2)cc(OC)c1OC | inconclusive: 25.1 µM [inhibitor, full curve]
31 | COc1ccc(N2CCN(S(=O)(=O)c3ccc(OC)cc3)CC2)cc1 | inconclusive: 44.7 µM [inhibitor, partial curve]
32 | CC(C)(C)NC(=O)C(=O)NNC(=O)c1cccc([N+](=O)[O-])c1 | inconclusive: 28.2 µM [inhibitor, full curve]
33 | COc1ccc(/C=C2\SC(=O)N(CCNC(=O)C3=COCCO3)C2=O)cc1 | inconclusive: 89.1 µM [inhibitor, single point]
34 | Cc1ccc(NC(=S)NCc2ccccc2)cc1S(=O)(=O)N1CCCCC1 | inactive
35 | COc1ccc(CNCC(O)COc2ccc(C(C)(C)c3ccccc3)cc2)cc1 (stereo not given) | active: 10 µM
36 | OC(COc1ccc2ccccc2c1Br)Cn1ccnc1 (stereo not given) | inconclusive: 79.4 µM [inhibitor, partial curve]
37 | COc1ccc(NC(=O)CC(NCCc2ccccc2)C(=O)O)c(OC)c1 (stereo not given) | active: 4.47 µM
38 | CCOc1cc(N2CCOCC2)c(OCC)cc1NC(=O)Cc1cccc2ccccc12 | inconclusive: 44.7 µM [inhibitor, partial curve]
39 | CCOc1ccc(Nc2cc(C)c3ccccc3n2)cc1 | inconclusive: 25.1 µM [inhibitor, full curve, poor fit]
40 | Cc1c(C)n(Cc2ccccc2)c2ccc(C(=O)OCCN(C)C)cc12 | active: 56.2 µM
41 | COc1ccc(N2CCN(S(=O)(=O)c3cccc4cccnc34)CC2)cc1 | inconclusive: 56.2 µM [inhibitor, partial curve]
42 | COCCCNCCCCOc1cccc(Br)c1 | active: 2.51 µM
43 | Cc1ocnc1C(=O)Nc1ccc(Cl)cc1 | inactive
44 | CCOC(=O)/C(=N/Nc1ccc(Cl)cc1)Sc1nnnn1-c1ccc(C)cc1 | inactive
45 | CCC1CCCCN1c1nc(-c2cccc(OC)c2O)nc2ccccc12 (stereo not given) | inconclusive: 25.1 µM [inhibitor, full curve]
